# From PubChem BioAssay AID1508642 (National Center for Advancing Translational Sciences (NCATS), 2021)
# The whole screen tested about 43,000 compounds, of which about 200 (0.47%) were called active. Inconclusive results (about 12%) are left out. The call rests on the fitted dose curve; in most records, active means well fitted cell-killing curve with a large enough effect; inconclusive means small, poorly fitted or top-dose-only effect, or effect the other way; inactive means flat fitted curve, though single readings scatter. Some of the results follow.
# Test: Cell viability qHTS assay in S16 Pmp22-F2sN cells; further: nearly all actives have a fitted effect of over 65% in size
# Settings: S16 Pmp22-F2sN Schwann cells viability, CellTiter-Glo, 24 h; series mostly up to 57.5 µM; activity change, negative = cytotoxicity: at the top concentration
# Method in brief: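 S16 Pmp22-F2sN Schwann cells (500-1,000/well) in phenol-red-free DMEM with 10% FBS received 23 nL compound by pin tool for 24 h at 37 °C. Viability was then read as CellTiter-Glo luminescence after 15 min at room temperature.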
# On the % scale 0 is the no-effect control and ±100 the full control effect.
row,Compound,"activity change, negative = cytotoxicity"
1,COc1cccc(NC(=O)Cn2c(=O)n(-c3cccc(OC)c3)c(=O)c3c4c(sc32)CCCC4)c1,inactive: 11.7%
2,COc1ccc(NS(=O)(=O)c2ccc3[nH]c4c(c3c2)CCCC4)c(OC)c1,inactive: -1.49%
3,CN(C)c1ccc(C(CNS(=O)(=O)c2cc(F)ccc2F)N2CCOCC2)cc1 (stereo unspecified),inactive: -4.79%
4,Cc1cc(C)c(Cn2c(=O)n(CCCCCC(=O)NCc3ccc4c(c3)OCO4)c(=O)c3sccc32)c(C)c1,inactive: -0.438%
5,O=C(CSCc1ccc(F)cc1)N1CCN(c2ccccc2)CC1,inactive: 0.369%
6,COc1ccc(C(CNC(=O)c2ccc(C)cc2)N2CCOCC2)cc1 (stereo unspecified),inactive: -2.08%
7,CCc1ccc(C2C(C(=O)Nc3ccccc3)=C(C)Nc3nc(SCC(=O)c4ccc(C)cc4)nn32)cc1 (stereo unspecified),inactive: -6.25%
8,CC(=O)c1ccc(NC(=O)Cn2c3ncccc3c(=O)n2-c2ccc(C)cc2)cc1,inactive: 8.83%
9,COc1ccc(NC(=O)c2cnc(SCC(=O)Nc3nc4ccc(C)cc4s3)n(C)c2=O)cc1,inactive: 22.3%
10,Cc1ccc(-c2noc(CSc3nnc(-c4ccc(Cl)cc4)n3C)n2)cc1,inactive: -20.5%
11,Cc1cccc(C(=O)NCC(c2ccc3c(c2)OCO3)N2CCOCC2)c1 (stereo unspecified),inactive: 6.82%
12,O=C(c1ccco1)c1cn(CCOc2ccc(Cl)cc2)c2ccccc12,inactive: 8.83%
13,CCC(=O)N1CCc2cc(CNC(=O)Nc3ccc(OC)cc3OC)ccc21,inactive: 0.582%
14,COc1ccccc1-c1cc(C(F)(F)F)nc(S(=O)(=O)CCCC(=O)Nc2cc(Br)ccc2O)n1,inactive: 17.3%
15,O=C(CSc1nccn1Cc1ccccc1)NC1CCCC1,inactive: -9.6%
16,COc1cccc(Cc2nc3ccccc3nc2SCC(=O)N2CCCCC2C)c1 (stereo unspecified),inactive: -7.42%
17,Cc1ccc2nc(NCc3ccccc3Cl)c3nnnn3c2c1,inactive: 0.405%
18,O=C(CSc1nc2c([nH]c3ccccc32)c(=O)n1-c1cccc(Cl)c1)N1CCc2ccccc21,inactive: 5.43%
19,COc1cc2ccccc2cc1C(=O)Nc1ccc2oc(-c3cc(Br)ccc3Cl)nc2c1,inactive: -0.447%
20,O=C(NCc1ccco1)c1ccc2c(c1)N(Cc1ccc(F)cc1)C(=O)c1ccccc1S2=O (stereo unspecified),inactive: -6.28%
21,O=C(CN1C(=O)CSc2ccc(S(=O)(=O)N3CCCCC3)cc21)NCc1ccc(F)cc1Cl,inactive: 2.1%
22,COc1cc(NC(=O)CCc2c(C)n(C)c3cc(-c4ccccc4C)nn3c2=O)cc(OC)c1OC,inactive: 13%
23,CCOc1ccccc1NC(=O)c1sc2nc3c(cc2c1N)CN(Cc1ccccc1)CC3,inactive: 3.4%
24,COc1cccc(C(=O)CN2CCN(S(=O)(=O)c3ccc(Cl)cc3)CC2)c1,inactive: 3.23%

row,Compound,"activity change, negative = cytotoxicity"
1,Cc1ccc(NC(=O)CCS(=O)(=O)c2cccc3nonc23)c(C)c1,inactive: 14.1%
2,CCOc1ccc(NC(=O)Cn2c(CCC(=O)O)ccc2-c2ccc(Cl)cc2)cc1,inactive: 6.06%
3,CCCN1C(C(=O)c2ccccc2)=C(OC(=O)c2ccc(F)cc2)c2ccccc2S1(=O)=O,inactive: -12.2%
4,Cc1ccc(C)c(Cn2c3ccccc3c3cnn(CC(=O)N4CCCCC4)c(=O)c32)c1,inactive: 9.55%
5,Cc1cccc(-n2c(=O)c3ccccc3n(Cc3ccccc3C#N)c2=O)c1,inactive: 13.6%
6,COc1cc2c(C(=O)N3CCN(c4cccc(C)c4)C(C)C3)cn(CC(C)C)c(=O)c2cc1OC (stereo unspecified),inactive: -29.6%
7,Cc1nn(CCC(=O)NC(C)C)c(=O)c2nn(-c3ccccc3)c(C)c12,inactive: 2.06%
8,COc1ccc(Cl)cc1NC(=O)c1cc(S(=O)(=O)N2CCc3ccccc32)cn1C,inactive: 6.25%
9,CC(C)Oc1ccc(CNC(=O)c2ccc3nc(SCc4ccc(F)cc4)n(C)c3c2)cc1,inactive: -1.97%
10,CC(NC(=O)c1ccc2nc(CCc3ccccc3)oc2c1)c1ccccc1 (stereo unspecified),inactive: -3.56%
11,Cc1ccccc1Cn1c(C)c(CNCc2ccccc2)c(C(=O)O)c1C,inactive: 11.9%
12,COc1ccc(NC(=O)CN(C)S(=O)(=O)c2ccc3[nH]c4c(c3c2)CCCC4)cc1OC,inactive: -1.89%
13,O=C(Nc1ccc2oc(-c3cccnc3)nc2c1)c1ccc(-c2cccc(OC(F)(F)F)c2)o1,inactive: 7.81%
14,COc1cccc(N2CCN(C(=O)c3ccc(CS(=O)c4cccc(Cl)c4)o3)CC2)c1 (stereo unspecified),inactive: -14%
15,O=C(NCCc1ccc(Cl)cc1)c1ccc2c(c1)N(Cc1ccccc1)CCS2,inactive: 9.02%
16,COc1ccc(NC(=O)c2nc(SCc3ccccc3F)ncc2Cl)cc1,inactive: -6.19%
17,Cc1ccc(C)c(NC(=O)CCc2c(C)n(C)c3cc(-c4ccccc4C)nn3c2=O)c1,inactive: -0.0712%
18,COc1cccc(CNS(=O)(=O)c2cc(Br)cc3c2N(C(C)=O)C(C)C3)c1 (stereo unspecified),inactive: 19.4%
19,O=C(CSCc1cnn(-c2ccccc2)c1-n1cccc1)NCc1ccccc1F,inactive: 2.52%
20,CCCCOc1ccc(S(=O)(=O)n2nc(C)c(S(=O)(=O)N3CCC(C)CC3)c2C)cc1,inactive: 15%
21,Cc1ccn2c(Nc3ccc4c(c3)OCO4)c(-c3ccc(O)cc3)nc2c1,inactive: -4.11%
22,CCCOC(=O)C(C)n1nnc2sc(-c3ccccc3)cc2c1=O (stereo unspecified),inactive: -1.05%
23,Cc1ccc(-n2nc(C(=O)N3CCN(c4ccccc4)CC3)c(=O)n(C)c2=O)cc1,inactive: -12.7%
24,COC(=O)c1ccccc1NC(=O)c1nc(S(=O)(=O)Cc2ccccc2F)ncc1Cl,inactive: 8.09%

row,Compound,"activity change, negative = cytotoxicity"
1,COc1cccc(CC(=O)NCc2ccc3c(c2)CCN3C(C)=O)c1,inactive: 10.6%
2,CN(C)S(=O)(=O)Nc1ccc(-c2cn3ccsc3n2)cc1,inactive: 12.6%
3,CCc1ccccc1NC(=O)C1CCN(c2nn3c(=O)cc(C)nc3s2)CC1,inactive: 0.55%
4,Cc1cccc(Cc2cnc(NC(=O)c3ccc4c(c3)CC(c3ccccc3)OC4=O)s2)c1 (stereo unspecified),inactive: 8.68%
5,CCc1ccc(-n2c(=O)c3c4c(sc3n(CC(=O)NCCCOC)c2=O)CCC4)cc1,inactive: 16.1%
6,Cc1ccc2oc(C(=O)Nc3ccc(S(=O)(=O)N(C)Cc4ccccc4)cc3)cc(=O)c2c1,inactive: -24.1%
7,Cc1ccc(C)c(N2CCN(S(=O)(=O)c3cnc(N)nc3)CC2)c1,inactive: -0.0546%
8,Cc1ccc2nc(N3CCN(c4cccc(C)c4C)CC3)c3nncn3c2c1,inactive: 0.0677%
9,Cc1ccc(NC(=O)Cn2c(=O)n(Cc3ccc4c(c3)OCO4)c(=O)c3ccccc32)c(C)c1,inactive: 12.1%
10,CCCCc1ccc(NC(=O)CSc2nc3ccccc3nc2N2CCOCC2)cc1,inactive: -4.57%
11,O=C(Nc1cc(Cl)cc(Cl)c1)c1ccc(F)c(S(=O)(=O)NC2CCCCC2)c1,inactive: -10.1%
12,COc1ccc(CCNC(=O)CCSCc2ccccc2Cl)cc1OC,inactive: 4.3%
13,CC(C)c1ccc2oc(-c3ccc(NC(=O)c4cc5ccccc5o4)cc3)nc2c1,inactive: 4.72%
14,CCOC(=O)c1ccc2c(c1)N(Cc1ccccc1)C(=O)c1ccccc1S2,inactive: 8.84%
15,CC(C)CCn1c(=O)c2sccc2n2c(CCCC(=O)NC3CCC(C)CC3)nnc12 (stereo unspecified),inactive: 20.9%
16,COC(=O)c1cnc(N2CCN(c3ccc(F)cc3)CC2)c2ccccc12,inactive: -2.93%
17,Cc1cccc(OCC(=O)N(Cc2ccccc2)c2ccccn2)c1,inactive: 16.1%
18,COc1ccc(OCC(=O)Nc2ccccc2C(=O)OCc2cc(=O)n3nc(C)sc3n2)cc1,inactive: 4.89%
19,COc1cc(-c2nc(-c3cccc(Cl)c3)c(-c3ccccc3)[nH]2)cc(OC)c1OC,inactive: 0.761%
20,O=C(NCCN1CCCCC1)c1ccc(Cn2c(SCc3cccc(F)c3)nc3cccnc32)cc1,inactive: 3.78%
21,COC(=O)c1ccc(CSc2nc3c(c(=O)[nH]2)CCC3)cc1,inactive: -5.88%
22,CC1CCC(NC(=O)c2ccc(CS(=O)(=O)c3c(Cl)cccc3Cl)o2)CC1 (stereo unspecified),inactive: 5.65%
23,O=C(CC1N=C2c3ccccc3N=C(SCc3cccc(F)c3)N2C1=O)NCc1ccc2c(c1)OCO2 (stereo unspecified),inactive: -24.6%
24,CCC(O)c1cc2c(cc1NC(=O)c1ccccc1F)OCCO2 (stereo unspecified),inactive: 2.11%

row,Compound,"activity change, negative = cytotoxicity"
1,Cc1ccc(OCC(=O)Nc2cccc(C(=O)OCc3cc(=O)n4nc(C)sc4n3)c2)cc1,inactive: -24.3%
2,O=C(O)c1ccc(NC(=O)c2cn(-c3ccccc3)nc2-c2ccc(Br)cc2)cc1,inactive: -15.8%
3,Cc1ccc2c(c1C)NC(=O)CC2c1ccc(Cl)cc1Cl (stereo unspecified),inactive: 12.5%
4,CCc1ccc(OCC(=O)Nc2ccc(-c3nc4ncccc4o3)cc2)cc1,inactive: -8.83%
5,Cc1ccc(-c2cc(C(=O)Oc3ccccc3Cl)no2)cc1C,inactive: -0.354%
6,Cc1ccc2nc(Cl)c3cc(C(=O)NC4CCC(C)CC4)sc3c2c1 (stereo unspecified),inactive: 4.74%
7,COc1cccc(CNC(=O)C(=O)Nc2ccc3nc4n(c(=O)c3c2)CCCCC4)c1,inactive: 10.5%
8,COc1ccc(NC(=O)CN(C)S(=O)(=O)c2cnc[nH]2)cc1Cl,inactive: -1.59%
9,Cc1ccc(-c2[nH]c(-c3ccccc3)nc2SCC(=O)NCC2CCCO2)cc1 (stereo unspecified),inactive: -5.31%
10,CCc1cccc(C)c1NC(=O)Cn1ccn(Cc2ccc(Cl)cc2)c(=O)c1=O,inactive: 2%
11,COc1ccc(-c2noc(COc3ccc(Br)cc3C)n2)cc1OC,inactive: -14.8%
12,O=C(NCC1CCN(Cc2cccc(Cl)c2)CC1)c1cc2ccc3cccnc3c2[nH]1,inactive: 2.96%
13,CCN(Cc1ccccc1)C(=O)CN1C(=O)COc2ccc(S(=O)(=O)N(CC)CC)cc21,inactive: 17.7%
14,Cc1ccc(C)c(N2CCN(C(=O)CCn3c(=O)c4cccn4c4cccnc43)CC2)c1,inactive: 2.23%
15,COc1ccccc1Nc1nc(-c2ccccc2Cl)c2cc(Br)ccc2n1,inactive: 5.13%
16,CC1=C(C(=O)Nc2ccc(Cl)cc2)C(C(C)C)n2nc(SCc3ccc(Cl)cc3)nc2N1 (stereo unspecified),inactive: -2.11%
17,Cc1cc(C)c2c(CC(=O)Nc3ccc(S(=O)(=O)Nc4ncccn4)cc3)coc2c1,inactive: -5.55%
18,COc1ccc(OC)c(CCNC(=O)C2=C(C)C(=O)OC23CCC(C)CC3)c1 (stereo unspecified),inactive: -2.59%
19,O=C(Cn1nc(C(F)(F)F)c2c1CCC2)Nc1ccc(Cl)cc1,inactive: 6.7%
20,COC(=O)c1cc(NC(=O)c2sc3ncn(Cc4cccc(F)c4)c(=O)c3c2C)cc(C(=O)OC)c1,inactive: 13.9%
21,COc1cc(CN(C(=O)c2cccc(C)c2)c2ccccn2)cc(OC)c1OC,inactive: 2.11%
22,Cc1ccc(-n2c(SCC(=O)NCc3ccccc3)nc3c([nH]c4ccccc43)c2=O)cc1,inactive: 6.46%
23,Cc1ccccc1CCNC(=O)C1CCN(c2nc3ccccc3nc2C(F)(F)F)CC1,inactive: -8.88%
24,O=C(NCc1ccccc1Cl)c1cc(=O)[nH]c2ccc(S(=O)(=O)N3CCCCC3)cc12,inactive: 2.25%
